PubChem BioAssay AID1745853 (National Center for Advancing Translational Sciences (NCATS), 2022)
The list shows a part of the results. Shown are side measurements of this screen, not its main read-out; they come without a call.

What was measured:
Assay in all cases: Primary Screen for Target Class Profiling of Small Molecule Inhibitors of Methyltransferases
[1] = target: Glycine N-methyltransferase (Homo sapiens) (UniProt Q14749); conditions: purified enzyme, MTase-Glo SAH luminescence; measured here: GNMT inhibition; at 40 µM; stronger effect = lower value
Method in brief: (§1)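 Each enzyme was reacted with SAM and its substrate, with compounds tested once at 40 uM; SAH formed was read by MTase-Glo luminescence.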

[2] = target: Guanidinoacetate N-methyltransferase (Homo sapiens) (UniProt Q14353); conditions: purified enzyme, MTase-Glo SAH luminescence; measured here: GAMT inhibition; at 40 µM; stronger effect = lower value
Method in brief: as §1

[3] = target: Histamine N-methyltransferase (Homo sapiens) (UniProt P50135); conditions: purified enzyme, MTase-Glo SAH luminescence; measured here: HNMT inhibition; at 40 µM; stronger effect = lower value
Method in brief: as §1

[4] = target: Nicotinamide N-methyltransferase (Homo sapiens) (UniProt P40261); conditions: purified enzyme, MTase-Glo SAH luminescence; measured here: NNMT inhibition; at 40 µM; stronger effect = lower value
Method in brief: as §1

[5] = target: Phenylethanolamine N-methyltransferase (Homo sapiens) (UniProt P11086); conditions: purified enzyme, MTase-Glo SAH luminescence; measured here: PNMT inhibition; at 40 µM; stronger effect = lower value
Method in brief: as §1
% is scaled to controls: 0 for no effect and ±100 for the full control effect.

Structure (SMILES)	activity change, negative = inhibition [1] [%]	activity change, negative = inhibition [2] [%]	activity change, negative = inhibition [3] [%]	activity change, negative = inhibition [4] [%]	activity change, negative = inhibition [5] [%]
CC(C)c1nccn1CCCNC(=O)c1ccc(-c2cccnc2)nc1	-1.28	-1.63	-48.8	0.367	-4.04
CN(C)c1nc2c(Br)c(Br)c(Br)c(Br)c2[nH]1	–	7.91	–	-7.29	6.6
CC(C)Cn1c(=O)c2ccc(C(=O)NC(C)C)cc2n2c(=O)n(Cc3c(F)cccc3Cl)nc12	1.58	0	0.833	2.05	1.49
C=CC1(C)CC(OC(=O)C(=C)C(O)COC(C)=O)C(C(=C)C(=O)OC)C(O)C1C(=C)CO (stereo not drawn)	0	8.46	7.8	-2.13	7.05
O=C(CN1C2=NCCN2c2ccccc21)c1ccc(-c2ccccc2)cc1	-7.13	-0.852	-43.9	-34.7	-20.6
CCOC(=O)CNC(=O)N1Cc2c(sc3c2CCCC3)-n2cccc2C1c1cccc(C)c1 (stereo not drawn)	-3.28	2.56	-3.59	-8.99	-0.929
CNC(=O)c1cc(C)nc2onc(C3CCCN([S+](=O)([O-])c4ccc(C)cc4)C3)c12 (stereo not drawn)	-25.5	-4.61	-2.38	-16.6	5.36
CCCNC(=O)N[C@@H]1C[C@H](COc2cccc(C)n2)[C@@H](O)[C@H]1O	-1.72	-0.286	-8.01	-2.55	-3.36
CCCCN1C(=O)c2cc(C(=O)NCc3ccccc3C)nn2CC1(C)C(=O)NC1CCCC1 (stereo not drawn)	-1.78	2.61	-6.58	-3.43	-1.77
Cc1ccc(NC(=O)N2CCn3cccc3C2C(C)C)cc1 (stereo not drawn)	0.048	2.57	-7.21	-5.79	-4.49
CCCn1cc(-c2ccncc2)cc1C(=O)NCc1ccc(C)o1	-14.6	-10.1	-18.8	-19.1	-10.1
O=c1c2ccccc2n2c(=O)n(Cc3cccc(F)c3)nc2n1Cc1ccc(F)cc1	8.96	1.34	12.4	2.84	6.13
CCOC(=O)c1cc2n(n1)CC(C)(C(=O)NCc1ccccc1OC)N(c1ccc(C)c(Cl)c1)C2=O (stereo not drawn)	-2.38	2.54	0.222	-8.42	-1.41
Cc1ccc(CN2CCCOCCNC(=O)[C@@H]3CCCC[C@@H]32)o1	-11.1	-8.54	-1.31	-9.96	-1.02
CCCn1c(=O)c2ccc(C(=O)NC3CCCC3)cc2n2c(=O)n(C)nc12	-1.52	6.78	-0.956	0	1.27
N[C@H](C(=O)O)[C@H](Cc1ccccc1)C(=O)O	-2.83	3.15	-1.2	-9.5	1.92
O=c1c2ccccc2n2c(=O)n(Cc3ccccc3Cl)nc2n1CCc1ccccc1	-0.784	0.769	9.49	-0.929	-0.19
CC(C)Cn1c(=O)c2ccc(C(=O)NC(C)C)cc2n2c(SCC(=O)Nc3ccc(F)cc3)nnc12	0.52	0	1.01	-14.1	-1.4
CN1CCCCCCN(C(=O)c2ccc3ccccc3n2)[C@H]2CCC[C@H]2C1=O	-2.85	-9.63	0.421	-8.84	-15.3
Cc1nn2c(c1-c1ccccc1OCc1ccccc1)N(C(=O)Cc1ccccc1)CCC2	-7.6	-7.17	-5.05	-22.2	-10.7
CC1(C(=O)NC2CCCCC2)Cn2c(ccc2-c2ccccc2)C(=O)N1Cc1ccccc1 (stereo not drawn)	2.5	1	1.51	2.18	3.7
CNC(=O)[C@H]1C[C@H](Oc2ccccc2)CN1Cc1cn(C)c2ccc(OC)cc12	-5.45	-3.85	-2.72	-13.7	-4.35
CC(C)CC(=O)N1CCCC(Cc2nc(C3CCOCC3)no2)C1 (stereo not drawn)	1.14	2.49	3.17	-0.54	0.752
CCOC(=O)c1cc2n(n1)CC(C)(C(=O)NC1CCC(C)CC1)N(Cc1ccc(Cl)cc1)C2=O (stereo not drawn)	-0.253	4.46	0.389	-2.43	1.42
C=C[C@](C)(O)CC[C@H]1C(C)=CC(=O)[C@H]2C(C)(C)CCC[C@]12C	-6.07	-6.04	-0.729	-18.7	-18.3
COc1cc(CCc2ccccc2)c(C(=O)O)c2c1CC(C(C)(C)O)O2 (stereo not drawn)	0	4.69	8.77	-10.6	1.98
CCN1CCC2(CCC1=O)CN(Cc1cscn1)CCN2C (stereo not drawn)	-2.89	-7.14	-4.66	-6.89	3.8
Cc1ccc(NC(=O)N2CCn3cccc3C2C(C)C)c(C)c1 (stereo not drawn)	14.5	2.33	4.23	5.09	9.96
O=C(NC1CCCCC1)N1CCc2n[nH]c(=O)n2CC1	0.096	-0.71	-1.05	-1.08	1.24
Cc1ccc(CSc2nnc3n(CCCOC(C)C)c(=O)c4ccccc4n23)cc1	-13.9	1.65	1.01	-11.1	-3.83
